Laboratory results reported in PubChem BioAssay AID504832 (National Center for Advancing Translational Sciences (NCATS), 2011).
The whole screen tested about 310,000 compounds, of which about 18,000 (5.8%) were called active. The inconclusive results got no clear call from the source; some entries with a clear call stand among them for comparison. Calls follow the shape of the dose curve; as a rule, active = well fitted inhibition curve with a large enough effect; inconclusive = small, poorly fitted or top-dose-only effect, or another doubt; inactive = no such curve, though single readings can be large or run the other way. Potencies of inconclusive entries are left out as doubtful fits.
Potency is read from the fitted curve at half-maximal effect; tags tell the direction and shape of the fitted curve.

Assay: Primary qHTS for delayed death inhibitors of the malarial parasite plastid, 48 hour incubation
Details: P. falciparum luciferase growth in erythrocytes; series mostly up to 28.7 µM
Outline: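 In quantitative HTS format, infected erythrocytes bearing luciferase-reporter parasites were treated for a single generation at 37 C. Luminescence after adding detection reagent served as the growth measure.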
For NCCCC[C@H]1CNC(=O)C(=O)N1CCc1cccc(F)c1, the Potency was inconclusive [inhibitor, partial curve]. In the case of Cc1[nH]c(-c2ccc(F)cc2)cc1C(=O)N1CCN(c2cccc(Cl)c2)CC1, the Potency is reported as inconclusive [inhibitor, single point]. In the case of CCN(C(=O)c1ccccc1)c1ccc([N+](=O)[O-])cc1, the Potency is reported as inconclusive [inhibitor, single point]. In the case of COc1ccc2sc(-c3ccc(N(C)C)cc3)c(C#CCCO)c2c1, the Potency is reported as inconclusive [inhibitor, single point]. With CC(C)c1ccc(OCc2ccc(C(=O)N3CCN(c4ccccn4)CC3)cc2)cc1 the Potency was inconclusive [inhibitor, partial curve, poor fit]. In the case of O=C(CN1C(=O)CCSc2ccccc21)Nc1ccc2c(c1)OCCO2, the Potency is reported as inconclusive [inhibitor, partial curve, poor fit]. In the case of CCCCNC(=O)[C@H](Cc1c[nH]c2ccccc12)NC(=O)c1ccccc1Cl, the Potency is reported as inconclusive [inhibitor, partial curve, poor fit]. In the case of COc1ccccc1C1CC(=O)NC(C)=C1C(=O)OCC(C)C (stereo not drawn), the Potency is reported as inconclusive [inhibitor, single point]. With Cc1cccc(NC(=O)C2CCN(S(=O)(=O)c3ccc4c(c3)OCCCO4)CC2)n1 the Potency was inconclusive [inhibitor, single point]. In the case of C=CCn1c(SCC(=O)Nc2cc3oc4ccccc4c3cc2OC)nnc1-c1cnccn1, the Potency is reported as active: 9.28 µM. In the case of COc1ccc(C2=C(Nc3ccccc3)c3ccccc3C2=O)cc1, the Potency is reported as active: 1.04 µM. With Cn1c(CCNC(=O)C2CCCCC2)nc2cc(NC(=O)c3cccs3)ccc21 the Potency was inconclusive [inhibitor, single point]. In the case of O=c1c2ccccc2ncn1CCCOc1ccccc1[N+](=O)[O-], the Potency is reported as “inactive”. In the case of CC1CC(C)CN(CC(=O)N2c3ccccc3CCc3ccccc32)C1 (stereo not drawn), the Potency is reported as inconclusive [inhibitor, partial curve]. In the case of O=C(Nc1ccc2c(c1)C(=O)NC2=O)c1ccc(S(=O)(=O)N2CCCC2)cc1, the Potency is reported as “inactive”. With CC(=O)N1CC(=O)N=C1SCC(=O)Nc1nc(-c2ccccc2)c(-c2ccccc2)s1 the Potency was active: 14.7 µM. With CC(C)c1ccccc1NC(=O)CNCCc1ccc(C(F)(F)F)cc1 the Potency was inconclusive [inhibitor, single point]. With CCOC(=O)CCNC(=O)N1CCCC(N(C)CCc2ccccc2)C1 (stereo not drawn) the Potency was “inactive”. For CCCCC1=NN(C(=O)c2cocc2C)C(O)(C(F)(F)F)C1 (stereo not drawn), the Potency was “inactive”. In the case of CCc1ccc(CNCc2cccs2)cc1, the Potency is reported as “inactive”. With Cc1ccc(Sc2nc(C)c([N+](=O)[O-])c(C)c2C#N)cc1 the Potency was inconclusive [inhibitor, partial curve]. For Cc1ccc(Cn2ccc(NC(=O)CCSc3nc(-c4ccco4)cc(C(F)(F)F)n3)n2)cc1, the Potency was active: 10.4 µM. With COCCCNC(=O)c1cn(C)c(=O)c2c1c1ccccc1n2C the Potency was “inactive”. In the case of Cc1cccc(N(Cc2ccccc2)C(=O)c2ccc(S(C)(=O)=O)cc2)c1, the Potency is reported as “inactive”. With COc1ccc(OC)c(C(=O)CCCC(=O)c2cc(OC)ccc2OC)c1 the Potency was inconclusive [inhibitor, single point]. For COc1cnc(-c2ccccc2)nc1Oc1ccccc1C, the Potency was inconclusive [inhibitor, full curve, poor fit]. In the case of COc1cc(CN2CCN(Cc3ccc([N+](=O)[O-])cc3)CC2)c([N+](=O)[O-])cc1OC, the Potency is reported as inconclusive [inhibitor, single point]. For O=C(Nc1ccccc1C(=O)NC(Cc1ccccc1)C(=O)NC1CCCCCC1)c1ccccc1 (stereo not drawn), the Potency was inconclusive [inhibitor, partial curve]. In the case of CC1CCN(C(=O)CSc2nc(N)c3c4c(sc3n2)CN(C)CC4)CC1, the Potency is reported as active: 2.33 µM. For Cc1nonc1C(=O)N1CCCC(Nc2ccc(C(C)C)cc2)C1 (stereo not drawn), the Potency was inconclusive [inhibitor, single point]. For CCNC(=O)C1CCCN1C(=O)C(CCCN=C(N)N)NC(=O)C(CC(C)C)NC(=O)C(Cc1cn(Cc2ccccc2)cn1)NC(=O)C(Cc1ccc(O)cc1)NC(=O)C(CO)NC(=O)C(Cc1c[nH]c2ccccc12)NC(=O)C(Cc1cnc[nH]1)NC(=O)C1CCC(=O)N1 (stereo not drawn), the Potency was “inactive”. With O=C(CNC(=O)c1ccco1)Nc1ccc(F)c(Cl)c1 the Potency was “inactive”. For CCCC[C@]12Cc3cc(OC)c(OC)cc3C(O1)c1c(cc(-c3ccccc3)oc1=O)O2, the Potency was inconclusive [inhibitor, partial curve]. For CC(=O)N1CCN(CC(=O)Nc2ccccc2Sc2ccc(Cl)cc2)CC1, the Potency was inconclusive [inhibitor, partial curve]. With CCCCOC(=O)c1ccc(NC(=S)NC(=O)c2ccco2)cc1 the Potency was inconclusive [inhibitor, single point]. With COc1ccccc1N1CCN(C2CCCN(C(=O)c3cccc(-c4ccco4)c3)C2)CC1 (stereo not drawn) the Potency was inconclusive [inhibitor, partial curve]. For Cc1cccc(NS(=O)(=O)c2cc(C(=O)N3CCc4ccccc4C3)ccc2Cl)c1C, the Potency was inconclusive [inhibitor, single point]. With COc1ccc(/C=N/Nc2nc(Nc3ccccc3)nc(N3CCCCC3)n2)cc1OC the Potency was inconclusive [inhibitor, partial curve, poor fit]. For Cc1ccc(S(=O)(=O)C(C#N)c2nc3ccccc3nc2N2CCCC2)cc1C (stereo not drawn), the Potency was inconclusive [inhibitor, single point]. With O=S(=O)(c1ccccc1)c1cnc(-c2ccccc2)nc1N1CCCC1 the Potency was “inactive”. For CCOCC(=O)Nc1nnc(Cc2ccc(OC)cc2)s1, the Potency was “inactive”. In the case of COc1cc(C(=O)N/N=C/c2sc(=O)n(-c3ccccc3)c2Cl)cc(OC)c1OC, the Potency is reported as “inactive”. In the case of CCOC(=O)N1CCC(NC(=O)CC2C(=O)NCCN2Cc2cccc(F)c2F)CC1 (stereo not drawn), the Potency is reported as “inactive”.
